The shares of active, inactive and inconclusive entries below differ from those in the screen. For part of these data: Potencies beside an inconclusive call are fits to weak or partial responses and may not hold up. Activity calls are given as the source filed them. Unless noted, calls come from the whole dose curve; as a rule, active = well fitted curve in the direction sought with a large enough effect; inconclusive = small, poorly fitted or top-dose-only effect, or another doubt; inactive = no such curve, though single readings can be large; an effect the other way counts as inactive or inconclusive.
How the values were obtained:
[1] = Cell Viability - BJ (AID 421; calls by dose curve;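 note: potency is the fitted concentration of half-maximal effect; cells exposed to compound for 40 hours at 37 °C before readout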); conditions: BJ fibroblast viability, qHTS
How it was run: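 Cytotoxicity in human BJ foreskin fibroblasts is scored as loss of cellular ATP after a 40-hour exposure, measured by luciferase luminescence. Controls are DMSO and 100 uM tamoxifen.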

[2] = Cell Viability - Hek293 (AID 427;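 active = compounds whose dose-response curve shows a full or clear partial loss of cell viability, called from curve shape rather than a numeric limit; inconclusive = weak partial curves or an effect only at the top dose; inactive = no dose-dependent loss of viability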;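 note: potency is the fitted concentration of half-maximal effect; cells exposed to compound for 40 hours at 37 °C before reading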); conditions: qHTS
How it was run: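 qHTS, human embryonic kidney (adenovirus-transformed) cells; 40 hr cpd, 37 °C; CellTiter-Glo ATP luminescence. Norm: DMSO = 0, 100 uM tamoxifen = 100% inhibition. Hill-fit AC50.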

[3] = Cell Viability - HepG2 (AID 433; calls by dose curve;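 note: potency is the fitted concentration of half-maximal effect; potency for ATP loss meaning cytotoxicity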); conditions: qHTS
How it was run: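 HepG2 cells, 1500 per well, treated 40 hr at 37 °C in complete medium; viability from intracellular ATP by CellTiter-Glo luminescence. Normalized to DMSO and 100 uM tamoxifen; AC50 from Hill fit of qHTS concentration-response.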

[4] = Cell Viability - SK-N-SH (AID 435; calls by dose curve;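 note: potency is the fitted concentration of half-maximal effect; compound exposure lasted 40 h at 37 °C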); conditions: SK-N-SH neuroblastoma cell viability qHTS
How it was run: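 SK-N-SH neuroblastoma cells (1500/well) treated 40 h at 37 °C in complete medium; viability read as cellular ATP by CellTiter-Glo luminescence. Normalized to DMSO and 100 uM tamoxifen; AC50 from Hill fits of qHTS concentration-response.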

[5] = Cell Viability - N2a (AID 540); conditions: N2a mouse neuroblastoma cell viability; activity change, negative = cytotoxicity: at 92.2 µM (top of the series); note: potency is the fitted concentration of half-maximal effect; nearly all actives have a fitted effect of over 45% in size
How it was run: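 Luminescent ATP signal (CellTiter-Glo, 20 min at room temperature) served as the viability read-out after N2a cells were treated with compounds for 40 hours at 37 °C. Concentration-response data were fitted to the Hill equation for AC50.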

[6] = Cell Viability - Renal Proximal Tubule (AID 545); conditions: renal proximal tubule cells viability, primary cells of rat origin; activity change, negative = cytotoxicity: at 91.7 µM (top of the series); note: nearly all actives have a fitted effect of over 40% in size
How it was run: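 Rat renal proximal tubule primary cells, 1000/well, exposed to compounds for 40 hr at 37 °C in complete medium; cellular ATP read by CellTiter-Glo luminescence. AC50 from concentration-response fitted with standard Hill equation.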

[7] = Cellular Toxicity (caspase-3) Jurkat (AID 655); conditions: Jurkat caspase-3 activation, luminescence; caspase-3 activation: at 92.2 µM (top of the series), DMSO = 0%, tamoxifen = 100%;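 note: cells exposed to compound for 16 h at 37 °C before reading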
How it was run: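 Jurkat cells (5000/well) in complete medium exposed 16 h at 37 C; caspase-3/7 activity read by Caspase-Glo luminescence after 20 min at room temperature. Normalized to DMSO and 100 uM tamoxifen; AC50 from Hill fits.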

[8] = Cellular Toxicity (caspase-3) H-4-II-E (AID 663); conditions: H-4-II-E rat hepatoma; Potency: caspase-3 activation; caspase-3 activation: at 92.2 µM (top of the series), scaled: DMSO 0%, 100 µM tamoxifen 100%; note: potency is the fitted concentration of half-maximal effect
How it was run: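 Apoptosis induction is scored as increased luminescence from caspase 3/7 substrate cleavage in rat hepatoma H-4-II-E cells exposed to compound for 16 hr. Activity is scaled between DMSO and 100 uM tamoxifen.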

[9] = Cell Viability - LYMP2-001 (AID 921); note: potency is the fitted concentration of half-maximal effect; nearly all actives have a fitted effect of over 70% in size
How it was run: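 Human lymphoblastoid LYMP2-001 cells, 2500 per well, in complete medium, treated 24 h at 37 C. Viability from cellular ATP by CellTiter-Glo luminescence; AC50 from Hill-equation fits of qHTS concentration-response.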

[10] = Confirmation and Secondary Assay for Modulators of Hemoglobin Beta Chain Splicing at IVS2 705 locus (AID 930);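 note: GFP fluorescence per well restored by corrected splicing of the IVS2-705 intron in EGFP; potency is the fitted concentration of half-maximal effect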
How it was run: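 First, HeLa EGFP-705 cells are seeded at 500/well in Optimem with 2% FCS and left overnight. Next, compound or DMSO is added for 2 days. Finally wells are laser-scanned and total peak GFP intensity scored.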

[11] = MultiTox-Fluor Cytotoxicity Assay - LYMP1-001 - Dead Cells (AID 946); conditions: LYMP1-001 lymphoblastoid cells, dead-cell protease fluorescence; cytotoxicity (dead cells): at 92.2 µM (top of the series); note: potency is the fitted concentration of half-maximal effect
How it was run: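 Seed 2500 LYMP1-001 cells/well, incubate 5 hr at 37 C; add compound, 16 hr at 37 C; add MultiTox-Fluor reagent, 60 min RT; read dead-cell fluorescence Ex/Em=485/520. Normalize to DMSO and 15 uM tetraoctylammonium bromide.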

[12] = MultiTox-Fluor Cytotoxicity Assay - LYMP1-001 - Live Cells (AID 947); note: potency is the fitted concentration of half-maximal effect
[13] = MultiTox-Fluor Cytotoxicity Assay - LYMP1-002 - Live Cells (AID 955); note: potency is the fitted concentration of half-maximal effect
How it was run: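 Read-out is live-cell protease activity (cell-permeant GF-AFC substrate, fluorescence Ex/Em=405/510), where a decrease indicates acute toxicity. Human lymphoblastoid cells were treated 16 hours at 37 C in a concentration series, and AC50 values came from standard Hill modelling.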

[14] = MultiTox-Fluor Cytotoxicity Assay - LYMP1-002 - Dead Cells (AID 960); conditions: LYMP1-002 lymphoblastoid cells, dead-cell protease fluorescence; cytotoxicity (dead cells): at 46.1 µM (top of the series); note: potency is the fitted concentration of half-maximal effect; nearly all actives have a fitted effect of over 60% in size
How it was run: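 LYMP1-002 cells 2500/well; 5 hr 37 C pre-incubation; compound 16 hr 37 C; MultiTox-Fluor reagent 60 min RT; dead-cell fluor Ex/Em 485/520. Norm. to DMSO (0%) vs 15 uM tetraoctylammonium bromide (100%); Hill AC50.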

[15] = MultiTox-Fluor Cytotoxicity Assay - LYMP1-003 - Dead Cells (AID 961); note: potency is the fitted concentration of half-maximal effect; nearly all actives have a fitted effect of over 70% in size
How it was run: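 LYMP1-003 lymphoblastoid, 2500 cells/well, 5 hr settle then 16 hr cpd at 37 C; MultiTox-Fluor reagent 60 min RT; Ex/Em 485/520 dead-cell signal; norm. DMSO = 0%, 15 uM tetraoctylammonium bromide = 100%; Hill AC50.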

[16] = Cell Viability - LYMP1-003 - Assay at 24 hr (AID 963); note: potency is the fitted concentration of half-maximal effect
How it was run: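 Cells seeded at 2500/well, 5 hr at 37 C; compounds added; 24 hr at 37 C; CellTiter-Glo added, 30 min room temperature; luminescence read. Decrease in ATP taken as cytotoxicity, AC50 from Hill modelling.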

[17] = Cell Viability - LYMP2-004 (AID 966); note: potency is the fitted concentration of half-maximal effect; nearly all actives have a fitted effect of over 65% in size
How it was run: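 Cells seeded 2500/well, rested 5 hr at 37 C, dosed across a concentration series, incubated 24 hr at 37 C, then CellTiter-Glo added for 30 min at room temperature and luminescence read. Hill fitting gave AC50.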

[18] = Cell Viability - LYMP2-005 (AID 967); note: potency is the fitted concentration of half-maximal effect
How it was run: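 Human lymphoblastoid LYMP2-005 cells, 2,500 per well in complete medium, rested 5 h at 37C then compound-treated 24 h at 37C. Intracellular ATP read by CellTiter-Glo luminescence after 30 min at room temperature; AC50 from Hill-equation fits of concentration-response data.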

[19] = Cell Viability - LYMP2-009 (AID 968); note: potency is the fitted concentration of half-maximal effect; nearly all actives have a fitted effect of over 55% in size
[20] = Cell Viability - LYMP2-015 (AID 971); note: potency is the fitted concentration of half-maximal effect; nearly all actives have a fitted effect of over 55% in size
How it was run: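 Luminescent ATP read-out (CellTiter-Glo) served as the viability measure after lymphoblastoid cells were exposed to compounds for 24 hours at 37 C. Concentration-response data were fitted with the Hill equation to give AC50.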

[21] = Cell Viability - LYMP2-025 (AID 976); conditions: LYMP2-025 lymphoblastoid cell viability; activity change, negative = cytotoxicity: at 92.2 µM (top of the series); note: potency is the fitted concentration of half-maximal effect
How it was run: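 Seed 2500 LYMP2-025 cells/well; 5 hr at 37 C; add compound; 24 hr at 37 C; add CellTiter-Glo; 30 min RT; read luminescence. AC50 from Hill-modelled concentration-response.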

[22] = Cell Viability - LYMP2-002 (AID 977); conditions: LYMP2-002 lymphoblastoid cell viability, qHTS; activity change, negative = cytotoxic: at 92.2 µM (top of the series);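 note: potency is the fitted concentration of half-maximal effect; compound exposure lasted 24 h at 37 °C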
How it was run: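 Cytotoxicity is scored as concentration-dependent loss of cellular ATP in a human lymphoblastoid line after 24 hr compound treatment at 37 C. AC50 is obtained by modelling concentration-response data with the Hill equation.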

[23] = Cell Viability - LYMP2-006 (AID 978); note: potency is the fitted concentration of half-maximal effect; nearly all actives have a fitted effect of over 60% in size
How it was run: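 Human lymphoblastoid cells (LYMP2-006), 2500/well in complete medium, were treated with compound for 24 hr at 37 C. Cellular ATP was read by CellTiter-Glo luminescence after 30 min, and AC50 values came from Hill-equation fits of concentration-response data.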

[24] = Cell Viability - LYMP2-007 (AID 979); conditions: LYMP2-007 lymphoblastoid cell viability; activity change, negative = cytotoxicity: at 92.2 µM (top of the series);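 note: potency is the fitted concentration of half-maximal effect; cells exposed to compound for 24 h before reading; nearly all actives have a fitted effect of over 60% in size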
How it was run: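 Luminescent ATP signal (CellTiter-Glo) serves as the viability read-out after 24 hr compound treatment of lymphoblastoid cells in complete medium at 37 C. Concentration-response data were fitted to the Hill equation to give AC50 values.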

[25] = Cell Viability - LYMP2-010 (AID 981); note: potency is the fitted concentration of half-maximal effect; nearly all actives have a fitted effect of over 55% in size
How it was run: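 Luminescent ATP signal (CellTiter-Glo) served as the viability read-out. Cells of the human lymphoblastoid line were treated with compound over a concentration range for 24 hours at 37 C, and AC50 values came from Hill-equation modeling.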

[26] = Cell Viability - LYMP2-014 (AID 983); note: potency is the fitted concentration of half-maximal effect; nearly all actives have a fitted effect of over 50% in size
How it was run: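 Luminescent ATP signal (CellTiter-Glo, 30 min at room temperature) serves as the viability read-out after 24 hr compound exposure at 37 C. Cells were seeded at 2500 per well and settled 5 hr beforehand.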

[27] = Cell Viability - LYMP2-016 (AID 984); conditions: LYMP2-016 lymphoblastoid cell viability, qHTS; activity change, negative = cytotoxicity: at 92.2 µM (top of the series); note: potency is the fitted concentration of half-maximal effect; nearly all actives have a fitted effect of over 55% in size
How it was run: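 Human lymphoblastoid LYMP2-016 cells, 2500 per well, treated with compounds for 24 h at 37 C. Viability read as intracellular ATP by CellTiter-Glo luminescence after 30 min at room temperature; AC50 from Hill fits of concentration-response.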

[28] = Cell Viability - LYMP1-002 - Assay at 24 hr (AID 993); note: potency is the fitted concentration of half-maximal effect
How it was run: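 Cells plated 2500/well, 5 hr 37 C; compounds added, 24 hr 37 C; CellTiter-Glo added, 30 min RT; luminescence read. Tetraoctylammonium bromide positive control. Hill-equation AC50.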

[29] = biological target: Estrogen receptor (Homo sapiens) (UniProt P03372); assay: qHTS assay for small molecule antagonists of estrogen receptor alpha signaling (AID 588513; active = well fitted curve in the direction sought with a large enough effect in the signal ratio, with a control signal flat, not every such curve was filed as active; inconclusive = small, poorly fitted or top-dose-only effect, or effect the other way, or a change in a side signal; inactive = no such curve, though single readings can be large or run the other way; the % refers to the signal ratio; note: potency is the fitted concentration of half-maximal effect); conditions: ER-alpha-UAS-bla HEK293, beta-lactamase ratio, antagonist mode; activity, negative = inhibition: at 76.9 µM (top of the series) unless noted
How it was run: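 ER-alpha-UAS-bla GripTite HEK 293 cells in 2% charcoal/dextran-treated FBS medium; compounds titrated (1:2, duplicate), then stimulated with 0.5 nM 17-beta-estradiol for 18 h at 37C. CCF4 beta-lactamase fluorescence; Hill-fit IC50 and efficacy.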

[30] = biological target: Estrogen receptor (Homo sapiens) (UniProt P03372); assay: qHTS assay for small molecule agonists of estrogen receptor alpha signaling (AID 588514; calls by dose curve;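 note: 0% = vehicle only and 100% = reference agonist; nearly all actives have a fitted effect of over 70% in size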); conditions: ER-alpha-UAS-bla HEK293, beta-lactamase ratio, 18 h; activation: at 76.8 µM (top of the series), percent of full estradiol response, vehicle zero
How it was run: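 Cells were plated at 5000/well, incubated 4 hrs at 37 C, dosed with compound titration series, incubated 18 hrs at 37 C, loaded with CCF4 dye for 2 hrs at RT, then fluorescence was read.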
Tags give direction and shape of the fitted curve or compound fluorescence and quenching.

Chain of UniProt P03372 (P03372 whole entry, looked up): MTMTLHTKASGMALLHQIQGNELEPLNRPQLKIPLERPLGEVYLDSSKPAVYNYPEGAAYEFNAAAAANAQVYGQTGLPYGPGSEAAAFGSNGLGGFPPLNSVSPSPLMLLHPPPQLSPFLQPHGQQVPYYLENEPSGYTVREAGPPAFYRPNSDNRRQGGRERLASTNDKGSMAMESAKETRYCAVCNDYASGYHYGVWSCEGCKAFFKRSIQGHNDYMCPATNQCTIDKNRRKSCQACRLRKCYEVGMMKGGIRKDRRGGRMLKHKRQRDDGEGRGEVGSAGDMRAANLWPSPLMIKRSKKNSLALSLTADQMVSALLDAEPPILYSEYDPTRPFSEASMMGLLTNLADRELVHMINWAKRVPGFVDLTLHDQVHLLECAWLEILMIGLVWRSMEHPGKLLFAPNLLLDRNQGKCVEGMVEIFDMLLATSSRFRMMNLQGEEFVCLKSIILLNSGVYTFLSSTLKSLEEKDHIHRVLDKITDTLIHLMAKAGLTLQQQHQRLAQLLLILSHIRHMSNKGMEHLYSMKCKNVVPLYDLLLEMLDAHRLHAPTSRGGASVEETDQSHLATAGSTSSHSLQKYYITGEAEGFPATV

NC1=NC(S)C2N=CN=C2N1 (stereo not given)
inconclusive: Potency [5] 1.26 µM [falling, full curve, poor fit] | activity change, negative = cytotoxicity [6] -60% | caspase-3 activation [7] 63% | Potency [9] 39.8 µM [cytotoxic, partial curve, poor fit] | Potency [11] 50.1 µM [cytotoxic, partial curve, poor fit] | Potency [12] 3.98 µM [cytotoxic, full curve] | Potency [13] 12.6 µM [cytotoxic, partial curve] | Potency [14] 31.6 µM [cytotoxic, single point] | Potency [15] 39.8 µM [cytotoxic, partial curve] | Potency [16] 1.26 µM [cytotoxic, full curve] | Potency [20] 10 µM [cytotoxic, full curve] | Potency [22] 7.94 µM [cytotoxic, full curve] | Potency [23] 15.8 µM [cytotoxic, full curve] | Potency [27] 15.8 µM [cytotoxic, partial curve] | Potency [29] 3.16 µM [falling, full curve] | activation [30] 47.8%
active: Potency [1] 0.218 µM | Potency [2] 1.39 µM | Potency [3] 1.89 µM | Potency [4] 0.182 µM | Potency [8] 2.51 µM | Potency [10] 5.01 µM | Potency [17] 7.94 µM | Potency [18] 12.6 µM | Potency [19] 15.8 µM | Potency [21] 3.16 µM | Potency [24] 15.8 µM | Potency [25] 12.6 µM | Potency [26] 15.8 µM | Potency [28] 10 µM
